Results are given in words; binding and its absence hold for the method and conditions named. In cells and extracts the contact can be indirect. Some results given as binding are weak or reduced against the parent protein; the word gives no strength.
Legend:
[1] = target: adenomatous polyposis coli, C-terminally truncated, of SW480 cells (human (endogenous in SW480)) (UniProt P25054); assay: co-IP; SW480 nuclear fraction; cells transfected with pcDNA, RPIA-WT or RPIA-ΔD; 100 μg lysate with anti-APC, anti-β-catenin or anti-RPIA antibody overnight, protein A/G-Sepharose 1.5 h, western blot
[2] = target: β-catenin of SW480 cells (human (endogenous in SW480)) (UniProt P35222); assay: as above
[3] = target: adenomatous polyposis coli, C-terminally truncated, of SW480 cells (human (endogenous in SW480)) (UniProt P25054); assay: co-IP; SW480 cytoplasmic fraction; cells transfected with pcDNA, RPIA-WT or RPIA-ΔD; 100 μg lysate with anti-APC, anti-β-catenin or anti-RPIA antibody overnight, protein A/G-Sepharose 1.5 h, western blot
[4] = target: β-catenin of SW480 cells (human (endogenous in SW480)) (UniProt P35222); assay: as above
[5] = target: adenomatous polyposis coli, wild type, of HCT116 cells (human (endogenous in HCT116)) (UniProt P25054); assay: co-IP; HCT116 nuclear fraction; cells transfected with pcDNA, RPIA-WT or RPIA-ΔD; 100 μg lysate with anti-APC, anti-β-catenin or anti-RPIA antibody overnight, protein A/G-Sepharose 1.5 h, western blot
[6] = target: adenomatous polyposis coli, wild type, of HCT116 cells (human (endogenous in HCT116)) (UniProt P25054); assay: co-IP; HCT116 cytoplasmic fraction; cells transfected with pcDNA, RPIA-WT or RPIA-ΔD; 100 μg lysate with anti-APC, anti-β-catenin or anti-RPIA antibody overnight, protein A/G-Sepharose 1.5 h, western blot

By UniProt entry, the sequences of proteins in these tests, tags left out. Where a name states a change or a piece, a line headed by the entry shows the natural chain unless it says otherwise. Residues count along the entry.
UniProt P25054: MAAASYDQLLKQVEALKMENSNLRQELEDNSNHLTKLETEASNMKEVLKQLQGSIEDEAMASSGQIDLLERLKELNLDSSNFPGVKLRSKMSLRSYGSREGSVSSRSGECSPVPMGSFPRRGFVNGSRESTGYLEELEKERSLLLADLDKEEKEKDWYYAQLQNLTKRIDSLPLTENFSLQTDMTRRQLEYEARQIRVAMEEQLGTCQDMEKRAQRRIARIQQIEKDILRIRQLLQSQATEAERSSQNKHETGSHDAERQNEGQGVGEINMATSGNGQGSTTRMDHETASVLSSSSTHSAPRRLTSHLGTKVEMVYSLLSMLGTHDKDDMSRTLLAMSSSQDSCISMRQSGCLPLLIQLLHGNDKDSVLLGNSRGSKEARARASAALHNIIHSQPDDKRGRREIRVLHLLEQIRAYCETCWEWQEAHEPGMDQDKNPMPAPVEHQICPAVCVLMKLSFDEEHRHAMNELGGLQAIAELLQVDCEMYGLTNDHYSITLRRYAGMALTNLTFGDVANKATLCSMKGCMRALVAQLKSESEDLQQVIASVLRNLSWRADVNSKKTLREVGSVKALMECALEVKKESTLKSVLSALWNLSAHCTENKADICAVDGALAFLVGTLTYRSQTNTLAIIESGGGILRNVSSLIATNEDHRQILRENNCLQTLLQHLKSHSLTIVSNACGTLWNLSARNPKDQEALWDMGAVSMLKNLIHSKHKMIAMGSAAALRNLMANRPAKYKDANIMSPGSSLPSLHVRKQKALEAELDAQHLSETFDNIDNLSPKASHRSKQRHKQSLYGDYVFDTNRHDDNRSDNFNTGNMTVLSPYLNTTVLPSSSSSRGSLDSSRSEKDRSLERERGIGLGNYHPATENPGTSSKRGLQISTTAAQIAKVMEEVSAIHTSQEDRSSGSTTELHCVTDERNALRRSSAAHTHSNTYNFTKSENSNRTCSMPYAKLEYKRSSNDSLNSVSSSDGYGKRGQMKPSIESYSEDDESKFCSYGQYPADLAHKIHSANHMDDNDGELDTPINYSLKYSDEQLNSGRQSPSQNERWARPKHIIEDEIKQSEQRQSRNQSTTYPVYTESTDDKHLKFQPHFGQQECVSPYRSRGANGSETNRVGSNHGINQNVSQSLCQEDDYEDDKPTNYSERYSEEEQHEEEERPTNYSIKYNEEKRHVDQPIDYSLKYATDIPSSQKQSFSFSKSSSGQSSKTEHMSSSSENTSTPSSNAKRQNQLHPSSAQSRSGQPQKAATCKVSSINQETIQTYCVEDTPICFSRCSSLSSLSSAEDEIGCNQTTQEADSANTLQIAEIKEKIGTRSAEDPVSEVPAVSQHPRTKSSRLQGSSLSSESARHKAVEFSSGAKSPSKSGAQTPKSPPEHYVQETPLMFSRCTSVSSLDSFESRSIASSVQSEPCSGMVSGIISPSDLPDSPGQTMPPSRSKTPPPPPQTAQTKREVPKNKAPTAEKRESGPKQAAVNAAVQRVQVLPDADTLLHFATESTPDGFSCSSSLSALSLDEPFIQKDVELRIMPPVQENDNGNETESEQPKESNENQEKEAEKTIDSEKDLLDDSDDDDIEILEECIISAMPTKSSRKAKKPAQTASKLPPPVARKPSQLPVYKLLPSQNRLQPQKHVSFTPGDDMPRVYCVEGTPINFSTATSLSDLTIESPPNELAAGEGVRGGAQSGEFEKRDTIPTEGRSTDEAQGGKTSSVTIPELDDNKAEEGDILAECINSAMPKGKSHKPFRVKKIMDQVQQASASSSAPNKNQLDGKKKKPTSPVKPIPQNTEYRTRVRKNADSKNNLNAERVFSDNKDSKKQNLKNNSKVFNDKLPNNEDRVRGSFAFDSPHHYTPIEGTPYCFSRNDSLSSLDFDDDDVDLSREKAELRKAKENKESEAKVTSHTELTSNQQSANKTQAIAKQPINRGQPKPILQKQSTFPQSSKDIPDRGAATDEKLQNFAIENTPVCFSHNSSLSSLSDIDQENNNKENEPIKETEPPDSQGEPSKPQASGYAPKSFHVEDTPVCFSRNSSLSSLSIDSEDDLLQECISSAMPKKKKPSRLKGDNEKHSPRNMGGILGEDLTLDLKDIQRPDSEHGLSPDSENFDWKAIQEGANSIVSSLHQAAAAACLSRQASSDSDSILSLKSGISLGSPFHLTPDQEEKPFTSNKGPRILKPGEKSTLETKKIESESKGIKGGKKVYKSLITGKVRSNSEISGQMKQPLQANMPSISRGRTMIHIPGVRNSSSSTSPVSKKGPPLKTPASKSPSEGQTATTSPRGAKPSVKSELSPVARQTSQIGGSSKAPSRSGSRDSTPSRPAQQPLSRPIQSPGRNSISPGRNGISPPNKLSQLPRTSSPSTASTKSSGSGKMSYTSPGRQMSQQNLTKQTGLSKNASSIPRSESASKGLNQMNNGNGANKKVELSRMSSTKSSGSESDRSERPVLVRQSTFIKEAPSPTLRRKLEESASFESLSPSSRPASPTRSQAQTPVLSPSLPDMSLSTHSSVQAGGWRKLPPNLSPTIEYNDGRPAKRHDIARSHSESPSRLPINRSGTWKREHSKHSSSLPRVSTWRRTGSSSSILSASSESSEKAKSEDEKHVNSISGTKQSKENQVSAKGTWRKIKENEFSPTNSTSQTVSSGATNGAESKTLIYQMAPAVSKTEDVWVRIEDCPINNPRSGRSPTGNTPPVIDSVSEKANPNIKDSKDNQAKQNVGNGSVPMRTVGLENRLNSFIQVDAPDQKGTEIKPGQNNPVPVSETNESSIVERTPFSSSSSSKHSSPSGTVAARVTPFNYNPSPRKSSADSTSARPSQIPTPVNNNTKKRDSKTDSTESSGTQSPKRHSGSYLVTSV
adenomatous polyposis coli, C-terminally truncated, of SW480 cells (human (endogenous in SW480)): residues 1-1338 of P25054
UniProt P35222: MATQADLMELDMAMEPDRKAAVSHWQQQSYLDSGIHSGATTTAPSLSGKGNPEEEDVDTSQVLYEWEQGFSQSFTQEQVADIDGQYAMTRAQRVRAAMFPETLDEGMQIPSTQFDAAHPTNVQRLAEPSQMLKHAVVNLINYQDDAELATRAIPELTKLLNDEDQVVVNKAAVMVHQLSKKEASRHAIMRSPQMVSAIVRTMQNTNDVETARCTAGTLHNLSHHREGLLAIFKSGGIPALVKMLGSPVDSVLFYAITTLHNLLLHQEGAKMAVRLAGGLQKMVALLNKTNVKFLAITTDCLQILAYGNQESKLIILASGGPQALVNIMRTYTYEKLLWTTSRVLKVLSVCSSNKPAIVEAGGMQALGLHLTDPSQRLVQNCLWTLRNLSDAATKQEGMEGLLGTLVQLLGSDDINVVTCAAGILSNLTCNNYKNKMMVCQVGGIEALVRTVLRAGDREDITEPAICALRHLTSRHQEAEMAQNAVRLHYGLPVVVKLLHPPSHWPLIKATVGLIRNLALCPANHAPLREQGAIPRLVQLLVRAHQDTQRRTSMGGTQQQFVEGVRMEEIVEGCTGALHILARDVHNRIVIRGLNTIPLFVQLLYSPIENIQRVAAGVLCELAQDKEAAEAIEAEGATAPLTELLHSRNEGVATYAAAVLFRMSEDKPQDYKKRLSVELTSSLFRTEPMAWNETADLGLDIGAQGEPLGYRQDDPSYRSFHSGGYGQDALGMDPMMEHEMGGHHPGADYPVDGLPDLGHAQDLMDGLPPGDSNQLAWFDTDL
UniProt P49247: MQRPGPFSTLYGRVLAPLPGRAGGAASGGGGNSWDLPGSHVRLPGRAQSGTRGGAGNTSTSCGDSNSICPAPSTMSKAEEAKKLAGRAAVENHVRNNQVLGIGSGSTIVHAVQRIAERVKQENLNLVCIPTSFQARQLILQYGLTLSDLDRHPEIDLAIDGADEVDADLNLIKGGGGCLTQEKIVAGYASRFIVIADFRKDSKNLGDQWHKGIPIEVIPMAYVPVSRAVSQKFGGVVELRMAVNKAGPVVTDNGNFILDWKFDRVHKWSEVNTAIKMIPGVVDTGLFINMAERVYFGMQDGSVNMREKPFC

## RPIA deletion domain D mutant (from UniProt P49247 1-289) (domain or fragment)
[1]
  binding: no binding
[2]
  binding: no binding
[3]
  binding: no binding
[4]
  binding: no binding
[5]
  binding: no binding
[6]
  binding: no binding

## ribose-5-phosphate isomerase A, wild type (from UniProt P49247 1-311) (enzyme)
[1]
  binding: binds
[2]
  binding: binds
[4]
  binding: binds
[5]
  binding: binds
[6]
  binding: binds

From publication PMC5786329
